The list shows a part of the results. The list includes weakly bound sequences.
target: T1, MBP-FoxP3dN (UniProt Q99JB6); test: PD-seq (MBP pull-down with sequencing); conditions: 20 mM Tris-HCl pH 7.5, 100 mM NaCl, 1.5 mM MgCl2, 0.4 uM protein, 0.1 uM dsDNA library, 30 min, room temperature, amylose pull-down; high values mean tight binding; double strand, one strand shown
T1 sequence: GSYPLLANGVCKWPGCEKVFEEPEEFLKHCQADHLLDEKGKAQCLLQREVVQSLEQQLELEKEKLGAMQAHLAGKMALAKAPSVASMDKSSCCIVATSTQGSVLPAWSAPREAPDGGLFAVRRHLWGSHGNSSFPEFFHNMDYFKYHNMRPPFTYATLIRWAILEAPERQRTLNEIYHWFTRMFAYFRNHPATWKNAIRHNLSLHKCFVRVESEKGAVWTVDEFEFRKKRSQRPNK

Sequence	binding signal (RPM ratio (pull-down/input))
GATGATTGTTCTCCCAGCTGATGAATTCGTTTCGTCGAGTAAACAAATTTTCCTAATCTTTCTGTTCAAGCGCCATCTAC	1.69
GATGATTGTTCTCCCAGCTGATGAATTGTACACTTCGAGTAAACAAATTTTCCTAATCTTTCTGTTCAAGCGCCATCTAC	0.789
GATGATTGTTCTCCCAGCTGATGAATTATCGGTGTCGAGTAAACAAATTTTCCTAATCTTTCTGTTCAAGCGCCATCTAC	0.505
GATGATTGTTCTCCCAGCTGATGAATTGTTCATCTCGAGTAAACAAATTTTCCTAATCTTTCTGTTCAAGCGCCATCTAC	0.501
GATGATTGTTCTCCCAGCTGATGAATTTAAATAATCGAGTAAACAAATTTTCCTAATCTTTCTGTTCAAGCGCCATCTAC	0.436
GATGATTGTTCTCCCAGCTGATGAATTCTGCGGTTCGAGTAAACAAATTTTCCTAATCTTTCTGTTCAAGCGCCATCTAC	0.932
GATGATTGTTCTCCCAGCTGATGAATTAAAAGGATCGAGTAAACAAATTTTCCTAATCTTTCTGTTCAAGCGCCATCTAC	0.179
GATGATTGTTCTCCCAGCTGATGAATTAGTGAGTTCGAGTAAACAAATTTTCCTAATCTTTCTGTTCAAGCGCCATCTAC	2.09
GATGATTGTTCTCCCAGCTGATGAATTCTGGCGATCGAGTAAACAAATTTTCCTAATCTTTCTGTTCAAGCGCCATCTAC	0.446
GATGATTGTTCTCCCAGCTGATGAATTTCTCTTATCGAGTAAACAAATTTTCCTAATCTTTCTGTTCAAGCGCCATCTAC	0.296
GATGATTGTTCTCCCAGCTGATGAATTCCCCAAGTCGAGTAAACAAATTTTCCTAATCTTTCTGTTCAAGCGCCATCTAC	0.14
GATGATTGTTCTCCCAGCTGATGAATTCTAATAGTCGAGTAAACAAATTTTCCTAATCTTTCTGTTCAAGCGCCATCTAC	0.82
GATGATTGTTCTCCCAGCTGATGAATTGATACTGTCGAGTAAACAAATTTTCCTAATCTTTCTGTTCAAGCGCCATCTAC	0.819
GATGATTGTTCTCCCAGCTGATGAATTACCGCTTTCGAGTAAACAAATTTTCCTAATCTTTCTGTTCAAGCGCCATCTAC	1.09
GATGATTGTTCTCCCAGCTGATGAATTTCTGGTATCGAGTAAACAAATTTTCCTAATCTTTCTGTTCAAGCGCCATCTAC	0.404
GATGATTGTTCTCCCAGCTGATGAATTGGGAGCATCGAGTAAACAAATTTTCCTAATCTTTCTGTTCAAGCGCCATCTAC	0.787
GATGATTGTTCTCCCAGCTGATGAATTACGATCGTCGAGTAAACAAATTTTCCTAATCTTTCTGTTCAAGCGCCATCTAC	0.481
GATGATTGTTCTCCCAGCTGATGAATTGCGGCTGTCGAGTAAACAAATTTTCCTAATCTTTCTGTTCAAGCGCCATCTAC	0.75
GATGATTGTTCTCCCAGCTGATGAATTTTTCACTTCGAGTAAACAAATTTTCCTAATCTTTCTGTTCAAGCGCCATCTAC	0.25
GATGATTGTTCTCCCAGCTGATGAATTCCGTATATCGAGTAAACAAATTTTCCTAATCTTTCTGTTCAAGCGCCATCTAC	2.23

Sequence	binding signal (RPM ratio (pull-down/input))
GATGATTGTTCTCCCAGCTGATGAATTGAAACTGTCGAGTAAACAAATTTTCCTAATCTTTCTGTTCAAGCGCCATCTAC	0.318
GATGATTGTTCTCCCAGCTGATGAATTCCGGGGGTCGAGTAAACAAATTTTCCTAATCTTTCTGTTCAAGCGCCATCTAC	0.538
GATGATTGTTCTCCCAGCTGATGAATTCATGATTTCGAGTAAACAAATTTTCCTAATCTTTCTGTTCAAGCGCCATCTAC	0.975
GATGATTGTTCTCCCAGCTGATGAATTTCTACTTTCGAGTAAACAAATTTTCCTAATCTTTCTGTTCAAGCGCCATCTAC	0.265
GATGATTGTTCTCCCAGCTGATGAATTTCTAGACTCGAGTAAACAAATTTTCCTAATCTTTCTGTTCAAGCGCCATCTAC	0.22
GATGATTGTTCTCCCAGCTGATGAATTGTAGCGATCGAGTAAACAAATTTTCCTAATCTTTCTGTTCAAGCGCCATCTAC	0.85
GATGATTGTTCTCCCAGCTGATGAATTGTATTATTCGAGTAAACAAATTTTCCTAATCTTTCTGTTCAAGCGCCATCTAC	5.22
GATGATTGTTCTCCCAGCTGATGAATTGGTTTGCTCGAGTAAACAAATTTTCCTAATCTTTCTGTTCAAGCGCCATCTAC	4.24
GATGATTGTTCTCCCAGCTGATGAATTTGTAACCTCGAGTAAACAAATTTTCCTAATCTTTCTGTTCAAGCGCCATCTAC	1.74
GATGATTGTTCTCCCAGCTGATGAATTGGTTAATTCGAGTAAACAAATTTTCCTAATCTTTCTGTTCAAGCGCCATCTAC	0.456
GATGATTGTTCTCCCAGCTGATGAATTGAGTCGTTCGAGTAAACAAATTTTCCTAATCTTTCTGTTCAAGCGCCATCTAC	0.673
GATGATTGTTCTCCCAGCTGATGAATTGTATAATTCGAGTAAACAAATTTTCCTAATCTTTCTGTTCAAGCGCCATCTAC	1.1
GATGATTGTTCTCCCAGCTGATGAATTCGGCCTCTCGAGTAAACAAATTTTCCTAATCTTTCTGTTCAAGCGCCATCTAC	5.44
GATGATTGTTCTCCCAGCTGATGAATTCGACTAATCGAGTAAACAAATTTTCCTAATCTTTCTGTTCAAGCGCCATCTAC	0.31
GATGATTGTTCTCCCAGCTGATGAATTCGCGCTTTCGAGTAAACAAATTTTCCTAATCTTTCTGTTCAAGCGCCATCTAC	1.34
GATGATTGTTCTCCCAGCTGATGAATTCAATTCATCGAGTAAACAAATTTTCCTAATCTTTCTGTTCAAGCGCCATCTAC	0.493
GATGATTGTTCTCCCAGCTGATGAATTACTGGAATCGAGTAAACAAATTTTCCTAATCTTTCTGTTCAAGCGCCATCTAC	0.268
GATGATTGTTCTCCCAGCTGATGAATTCGAGATGTCGAGTAAACAAATTTTCCTAATCTTTCTGTTCAAGCGCCATCTAC	0.429
GATGATTGTTCTCCCAGCTGATGAATTGCCCGTTTCGAGTAAACAAATTTTCCTAATCTTTCTGTTCAAGCGCCATCTAC	0.503
GATGATTGTTCTCCCAGCTGATGAATTAAGGGTGTCGAGTAAACAAATTTTCCTAATCTTTCTGTTCAAGCGCCATCTAC	0.679
